Among all 310,000 compounds or so, about 14,000 (4.5%) showed an effect of 50% or more. Effects have a minus sign here. The list shows a part of the results.
Each compound was assayed against human ether-à-go-go-related gene (hERG) potassium channel (human, UniProt Q12809) (assay: primary screen, population patch clamp on CHO cells stably expressing hERG).
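Also: peak tail current of the secondary pulse compared with the same well before compound.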

Sequence of human ether-à-go-go-related gene (hERG) potassium channel (Q12809 whole entry, looked up): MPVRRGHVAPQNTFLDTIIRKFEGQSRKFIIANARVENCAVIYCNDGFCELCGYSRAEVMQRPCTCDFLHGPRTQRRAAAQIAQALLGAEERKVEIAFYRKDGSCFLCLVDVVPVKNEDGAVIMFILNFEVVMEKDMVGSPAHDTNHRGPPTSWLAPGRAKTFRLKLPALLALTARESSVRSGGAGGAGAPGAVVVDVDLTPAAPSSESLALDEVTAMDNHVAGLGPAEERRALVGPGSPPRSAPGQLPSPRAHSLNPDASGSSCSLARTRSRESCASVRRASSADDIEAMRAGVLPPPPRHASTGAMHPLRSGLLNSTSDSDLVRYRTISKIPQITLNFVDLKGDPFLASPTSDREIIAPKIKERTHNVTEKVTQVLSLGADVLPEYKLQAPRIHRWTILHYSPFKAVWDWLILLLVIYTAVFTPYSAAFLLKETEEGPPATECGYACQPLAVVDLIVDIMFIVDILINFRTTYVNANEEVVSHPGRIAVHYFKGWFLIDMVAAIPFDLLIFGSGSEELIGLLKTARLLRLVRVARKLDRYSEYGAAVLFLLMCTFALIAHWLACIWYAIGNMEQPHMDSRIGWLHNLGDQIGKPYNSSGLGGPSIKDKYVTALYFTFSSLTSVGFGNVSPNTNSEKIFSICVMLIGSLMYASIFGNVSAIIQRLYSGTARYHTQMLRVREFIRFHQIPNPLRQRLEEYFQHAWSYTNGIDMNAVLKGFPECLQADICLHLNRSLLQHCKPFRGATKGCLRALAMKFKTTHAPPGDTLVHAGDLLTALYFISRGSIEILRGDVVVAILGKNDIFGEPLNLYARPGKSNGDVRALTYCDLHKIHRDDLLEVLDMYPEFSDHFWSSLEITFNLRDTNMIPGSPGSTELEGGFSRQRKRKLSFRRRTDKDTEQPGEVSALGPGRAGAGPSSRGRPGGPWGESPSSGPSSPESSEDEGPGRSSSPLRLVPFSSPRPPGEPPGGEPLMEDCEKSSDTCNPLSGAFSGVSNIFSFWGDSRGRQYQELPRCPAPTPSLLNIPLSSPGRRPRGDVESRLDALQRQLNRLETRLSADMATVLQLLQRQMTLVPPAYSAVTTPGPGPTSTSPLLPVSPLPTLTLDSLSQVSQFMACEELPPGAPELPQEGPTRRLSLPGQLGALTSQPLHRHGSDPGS

Compound | hERG current change (%, negative = inhibition) at 10uM
O=C(CNC(=O)c1ccco1)NCC(=O)OC(C(=O)c1ccccc1)c1ccc(Cl)cc1 (stereo not shown) | -12.9%
CN1CCN(S(=O)(=O)c2cccc(C(=O)N3CCN(c4ccccc4F)CC3)c2)CC1 | -0.195%
CS(=O)(=O)N(CC(=O)N1CCN(c2cccc(Cl)c2)CC1)C1CCCCC1 | -4.68%
CC1=NN(c2ccccc2)C(=O)/C1=C\c1c(C)[nH]n(-c2ccccc2)c1=O | 0.917%
O=C(Nc1ccccc1C(F)(F)F)N1CCN(c2ccc3nncn3n2)CC1 | -1.32%
Cc1nnc(SCC(=O)Nc2ccc([N+](=O)[O-])cc2)n1CC1CCCO1 (stereo not shown) | -55.5%
CNC(=O)c1ccccc1-c1ccccc1 | -7.57%
CN1CCN(Cc2ccccc2C(F)(F)F)CC1 | 1.94%
Cc1ccc(CC2C(=O)N(c3ccc(C)cc3)C(=O)C2C)cc1 (stereo not shown) | 22.5%
Cc1ccc2c(c1)C(=O)C(=O)N2CCOc1ccccc1 | -5.83%
CCc1cc2c(SCC(=O)C(C#N)=C3N(C)c4ccccc4N3C)ncnc2s1 | -25.2%
CCOC(=O)c1c(C)oc2c1c(CN1CCN(C(=O)OCC)CC1)c(O)c1ccccc12 | 7.69%
Cc1ccn2c(=O)nc(SCC(=O)NCc3ccco3)nc2c1 | 4.07%
COCCn1c(SCC(=O)N2CCc3ccccc32)nc2c(c1=O)SC(C)C2 (stereo not shown) | -36.9%
O=c1nc2c(-c3ccccc3F)n[nH]n2c2ccccc12 | 11.7%
COc1c(C)cc(Br)cc1C(=O)Nc1ccc(N2CCN(S(C)(=O)=O)CC2)cc1 | 6.34%
CCOC(=O)c1cnc2c([N+](=O)[O-])cnn2c1C | -1.44%
CC[n+]1c(-c2ccccc2)csc1Nc1c(C)n(C)n(-c2ccccc2)c1=O.[Br-] | 3.58%
O=C1CCCC(O)=C1C1C2=C(CCCC2=O)Oc2ccccc21 (stereo not shown) | -6.91%
CCc1ccc(C(=O)COC(=O)c2ccccc2OC)cc1 | -6.34%
Cc1cccc(-n2ncc3c(N4CC(C)CC(C)C4)ncnc32)c1 (stereo not shown) | 8%
Cc1ccc(/C=N/NC(=O)C[n+]2ccccc2)s1.[Cl-] | 19%

Compound | hERG current change (%, negative = inhibition) at 10uM
CN(C)/C=C1\C=C2C(=O)c3ccccc3N2C1=O | 12.9%
O=[N+]([O-])c1cc2c(c(CSc3nnc(Nc4ccccc4)s3)c1)OCOC2 | 14.2%
COc1ccccc1CN1CCN(C(=O)c2ccncc2)CC1 | 4.92%
C=CCc1ccccc1OCC(O)CN1CCN(CCN2C(=O)c3cccc4cccc(c34)C2=O)CC1.Cl (stereo not shown) | -57.8%
CCN(CC)c1ccc(/C=N/Nc2nc(C)cc(C)n2)cc1 | -15.5%
COc1cc(NC(=O)CSc2ncnc3sc4c(c23)CCCC4)c(C(=O)O)cc1OC | -4.76%
COc1ccc(N2Cc3ccccc3C2=NC(=O)c2cccc([N+](=O)[O-])c2)cc1 | -4.7%
COCCn1c(SCC(=O)NC2CC2)nnc1-c1ccc(Cl)cc1 | -4.51%
O=C(NCc1cccs1)C1CC(=O)N(C2CCCC2)C1 (stereo not shown) | 5.38%
Cc1cnc(C(=O)Nc2ccccc2-n2cccc2)cn1 | -48.3%
C=CCSc1nc(C)c(CCC(C)C)c(=O)[nH]1 | -9.72%
COc1cc(C(=O)Nc2ccc(S(=O)(=O)Nc3nccc(C)n3)cc2)c([N+](=O)[O-])cc1OC | 11.6%
CCOc1ccccc1/C=N/NC(=O)c1cc(C(C)C)[nH]n1 | 8.78%
Cc1ccc(-c2nnc(N(C)C(=O)c3ccncc3)s2)cn1 | 1.62%
O=C(OCc1nc2ccccc2s1)c1ccc([N+](=O)[O-])o1 | 15%
O=C(c1ccc(Cl)cc1)C12CN3CN(CN(C3)C1)C2 | -1.03%
O=C(Cc1ccccc1[N+](=O)[O-])NCCCc1ccccc1 | -3.31%
CCCNC(=S)N1CCC(NC(=O)c2cccc(C)c2)CC1 | 11.1%
CCC(C)(C)NC(=O)C(c1cccn1C)N(C(=O)Cn1nnc2ccccc21)c1ccc(OC)cc1 (stereo not shown) | 4.68%
CC(OC(=O)C1CCN(S(=O)(=O)c2ccccc2)CC1)C(=O)Nc1ncc(Cl)cc1Cl (stereo not shown) | -64%
Cc1ccc2c(c1)c(=O)c1c3n2CCN(CC2CO2)C3CC1 (stereo not shown) | 4.27%
O=C(COC(=O)CSc1ccc([N+](=O)[O-])cc1)NCC1CCCO1 (stereo not shown) | 12.3%

Compound | hERG current change (%, negative = inhibition) at 10uM
Clc1ccc(Nc2nc(-c3cccnc3)cs2)cc1 | 1.8%
Cc1ccc2c(c1)N(CC(=O)NCCCN1CCCCC1)C(=O)c1cccnc1O2 | -0.0427%
O=S(=O)(c1ccc2nc(Nc3ccccc3)ccc2c1)N1CCCCC1 | 3.25%
O=c1c2ccccc2nc(/C=C/c2ccc(Br)cc2)n1CCCO | 0.999%
COc1cc(/C=C2/C(=O)N(c3ccc(C(=O)O)cc3)N=C2C)cc(OC)c1O | 14.9%
CC(Sc1nc2ncc(Cl)cc2[nH]1)C(=O)c1c(N)n(C)c(=O)n(C)c1=O (stereo not shown) | -12.7%
CCCCCC(C)NC(=O)c1ccoc1C (stereo not shown) | -10.4%
COc1ccc(C(CNC(=O)COc2ccc(F)cc2Br)N2CCCC2)cc1 (stereo not shown) | -64.5%
Nc1ncc(Br)cc1S(=O)(=O)N1CCCCCC1 | 9.6%
Cc1ccc(Cn2ccc(NC(=O)c3cc(-c4ccc(F)cc4)on3)n2)cc1 | 8.53%
CCOc1cccc(C(=O)Nc2cccc(C(=O)NCC(C)C)c2)c1 | -42.8%
N#CC1(NC(=O)CSc2nnc(Nc3ccccc3F)s2)CCCC1 | 0.45%
CCN(CCCNC(=O)CN1C(=O)COc2ccccc21)c1ccccc1 | -5.53%
CCOCC(O)CSCc1ccc(Cl)cc1 (stereo not shown) | 1.1%
CS(=O)(=O)N(CC(=O)N1CCC(C(N)=O)CC1)c1ccc(Oc2ccccc2)cc1 | -23.9%
CCOC(=O)C1(Cc2ccccc2)C(=O)Nc2ccccc21 (stereo not shown) | -1.59%
COc1ccc(CCNC(=O)CC2SC(=NCCc3ccccc3)NC2=O)cc1OC (stereo not shown) | 10.2%
Cn1c(=O)n(C)c2cc([N+](=O)[O-])c(N3CCN(C(=O)c4ccc(Cl)cc4)CC3)cc21 | -65.9%
Cc1ccc(NC(=O)OCCNC(=O)OC(C)C)cc1 | 10.2%
Cc1ccc(C2C(C#N)=C(N)OC3=C2C(=O)CCC3)s1 (stereo not shown) | 14%
FC(F)(F)c1ccc(Cl)c(NC(=S)N/N=C/c2ccccc2Cl)c1 | 5.74%
CCn1c(CNC(=O)Cc2ccc(OC)cc2)nnc1SCC(=O)c1ccc(Br)cc1 | -4.64%

Compound | hERG current change (%, negative = inhibition) at 10uM
COc1cc2[nH]c(=O)n(CCCCCC(=O)NCCc3c[nH]c4ccccc34)c(=O)c2cc1OC | -5.15%
CC(C)n1ncc2c(C(=O)Nc3cccc(C#N)c3)cc(C3CC3)nc21 | -40.6%
COC(Cn1cc(C)c(=O)[nH]c1=O)OC | 16.3%
CCOC(=O)C1=C(CSc2nc3ccccc3s2)NC(=O)NC1c1cc(C)ccc1C (stereo not shown) | -3.57%
O=P(c1ccc2c(c1)OCCO2)(N1CCOCC1)N1CCOCC1 | -12.4%
COc1ccc(C2/C(=C(\O)c3ccc(OC)c(Cl)c3)C(=O)C(=O)N2CCN(C)C)cc1 (stereo not shown) | 10.3%
COc1ccc(CNc2ncnc3cc(OC)c(OC)cc23)cc1OC | 37%
CN(C(=O)CN1C(=O)NC(C)(CCc2ccccc2)C1=O)c1ccccc1 (stereo not shown) | 4.77%
Cc1ccccc1C(=O)Nc1cc(NC(=O)c2ccccc2C)cc(C(=O)O)c1 | 11.5%
Cc1cccc(NS(=O)(=O)c2c(C)nc3scc(C)n3c2=O)c1 | -65.2%
O=C(Cn1c2ccccc2c(=O)c2ccccc21)Nc1cccc(F)c1 | 12.8%
Cc1ccccc1Oc1ccc(S(=O)(=O)NCCC(=O)O)cc1 | 18.1%
COC(=O)c1ccc2[nH]c3cccc(/C(=C/c4ccccc4)c4ccccc4)c3c2c1 | 13.1%
O=C(C1=C[C@@H](c2ccccc2)C[C@@H](OCCCCO)O1)N1CCOCC1 | 1.52%
COC(=O)CN1C(=O)C(O)(CC(=O)c2ccc(C)cc2)c2cc(Br)ccc21 (stereo not shown) | -17.7%
CCN(CC)C(=O)c1ccc(NC(=O)c2c(C)noc2C)cc1 | -3.24%
COc1ccc(CNC(=O)COC(=O)c2c(NC(C)=O)sc(C)c2C)cc1 | 0.943%
COCCCNC(=O)CSc1nc2ccccc2c(=O)n1Cc1ccc2c(c1)OCO2 | 12.4%
Cc1ccc(NC(=O)c2cnc(SCC(=O)NCC3CCCO3)n(C)c2=O)cc1C (stereo not shown) | -43.2%
Cc1ccc(-n2nc3c(c2NC(=O)/C=C\c2ccc4c(c2)OCO4)CSC3)c(C)c1 | 3.72%
Cc1cccc(OCCCCc2c(C)n[nH]c2C)c1 | 5.95%
Cl.N=c1c[n+](-c2ccc(Cl)cc2)[n-]o1 | 4.05%
